For 5 substances, binding results are on record in publication PMC11490888.

Protein sequences, listed by entry. Tags and fused reporters are not part of them.
UniProt P12956: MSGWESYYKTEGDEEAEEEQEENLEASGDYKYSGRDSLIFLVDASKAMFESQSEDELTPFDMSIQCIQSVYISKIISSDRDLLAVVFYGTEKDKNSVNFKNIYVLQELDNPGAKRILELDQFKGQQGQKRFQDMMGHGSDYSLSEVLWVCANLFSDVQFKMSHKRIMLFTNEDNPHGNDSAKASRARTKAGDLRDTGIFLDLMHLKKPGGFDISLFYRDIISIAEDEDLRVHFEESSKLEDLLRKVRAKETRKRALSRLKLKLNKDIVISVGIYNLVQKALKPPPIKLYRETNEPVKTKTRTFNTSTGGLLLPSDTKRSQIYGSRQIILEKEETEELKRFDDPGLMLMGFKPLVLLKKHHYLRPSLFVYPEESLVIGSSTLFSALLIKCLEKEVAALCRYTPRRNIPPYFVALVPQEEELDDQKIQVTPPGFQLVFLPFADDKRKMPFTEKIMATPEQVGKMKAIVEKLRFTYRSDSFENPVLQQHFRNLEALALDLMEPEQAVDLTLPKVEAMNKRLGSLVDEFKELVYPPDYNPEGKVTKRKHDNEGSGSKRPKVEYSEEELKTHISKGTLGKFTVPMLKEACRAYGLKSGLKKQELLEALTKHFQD
UniProt P13010: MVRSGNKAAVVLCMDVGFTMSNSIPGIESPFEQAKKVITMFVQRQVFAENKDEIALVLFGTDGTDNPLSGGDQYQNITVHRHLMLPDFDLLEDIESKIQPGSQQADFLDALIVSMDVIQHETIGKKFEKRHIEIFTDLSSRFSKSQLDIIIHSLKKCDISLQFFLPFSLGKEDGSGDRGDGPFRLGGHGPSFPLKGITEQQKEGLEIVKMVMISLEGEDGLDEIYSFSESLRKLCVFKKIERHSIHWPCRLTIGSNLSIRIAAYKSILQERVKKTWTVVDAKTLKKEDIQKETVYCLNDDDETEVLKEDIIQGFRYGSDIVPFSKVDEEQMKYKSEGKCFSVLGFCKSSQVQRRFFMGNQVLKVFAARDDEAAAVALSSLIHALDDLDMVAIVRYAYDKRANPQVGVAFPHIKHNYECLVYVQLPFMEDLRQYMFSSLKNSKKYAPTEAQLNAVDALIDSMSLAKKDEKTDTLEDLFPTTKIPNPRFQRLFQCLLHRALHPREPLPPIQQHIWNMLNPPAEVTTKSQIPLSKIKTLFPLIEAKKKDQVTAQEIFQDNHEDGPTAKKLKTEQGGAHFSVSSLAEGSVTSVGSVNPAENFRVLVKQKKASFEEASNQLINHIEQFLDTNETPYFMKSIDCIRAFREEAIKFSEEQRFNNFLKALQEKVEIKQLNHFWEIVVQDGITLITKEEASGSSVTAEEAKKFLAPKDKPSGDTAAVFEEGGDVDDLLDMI
UniProt P78527: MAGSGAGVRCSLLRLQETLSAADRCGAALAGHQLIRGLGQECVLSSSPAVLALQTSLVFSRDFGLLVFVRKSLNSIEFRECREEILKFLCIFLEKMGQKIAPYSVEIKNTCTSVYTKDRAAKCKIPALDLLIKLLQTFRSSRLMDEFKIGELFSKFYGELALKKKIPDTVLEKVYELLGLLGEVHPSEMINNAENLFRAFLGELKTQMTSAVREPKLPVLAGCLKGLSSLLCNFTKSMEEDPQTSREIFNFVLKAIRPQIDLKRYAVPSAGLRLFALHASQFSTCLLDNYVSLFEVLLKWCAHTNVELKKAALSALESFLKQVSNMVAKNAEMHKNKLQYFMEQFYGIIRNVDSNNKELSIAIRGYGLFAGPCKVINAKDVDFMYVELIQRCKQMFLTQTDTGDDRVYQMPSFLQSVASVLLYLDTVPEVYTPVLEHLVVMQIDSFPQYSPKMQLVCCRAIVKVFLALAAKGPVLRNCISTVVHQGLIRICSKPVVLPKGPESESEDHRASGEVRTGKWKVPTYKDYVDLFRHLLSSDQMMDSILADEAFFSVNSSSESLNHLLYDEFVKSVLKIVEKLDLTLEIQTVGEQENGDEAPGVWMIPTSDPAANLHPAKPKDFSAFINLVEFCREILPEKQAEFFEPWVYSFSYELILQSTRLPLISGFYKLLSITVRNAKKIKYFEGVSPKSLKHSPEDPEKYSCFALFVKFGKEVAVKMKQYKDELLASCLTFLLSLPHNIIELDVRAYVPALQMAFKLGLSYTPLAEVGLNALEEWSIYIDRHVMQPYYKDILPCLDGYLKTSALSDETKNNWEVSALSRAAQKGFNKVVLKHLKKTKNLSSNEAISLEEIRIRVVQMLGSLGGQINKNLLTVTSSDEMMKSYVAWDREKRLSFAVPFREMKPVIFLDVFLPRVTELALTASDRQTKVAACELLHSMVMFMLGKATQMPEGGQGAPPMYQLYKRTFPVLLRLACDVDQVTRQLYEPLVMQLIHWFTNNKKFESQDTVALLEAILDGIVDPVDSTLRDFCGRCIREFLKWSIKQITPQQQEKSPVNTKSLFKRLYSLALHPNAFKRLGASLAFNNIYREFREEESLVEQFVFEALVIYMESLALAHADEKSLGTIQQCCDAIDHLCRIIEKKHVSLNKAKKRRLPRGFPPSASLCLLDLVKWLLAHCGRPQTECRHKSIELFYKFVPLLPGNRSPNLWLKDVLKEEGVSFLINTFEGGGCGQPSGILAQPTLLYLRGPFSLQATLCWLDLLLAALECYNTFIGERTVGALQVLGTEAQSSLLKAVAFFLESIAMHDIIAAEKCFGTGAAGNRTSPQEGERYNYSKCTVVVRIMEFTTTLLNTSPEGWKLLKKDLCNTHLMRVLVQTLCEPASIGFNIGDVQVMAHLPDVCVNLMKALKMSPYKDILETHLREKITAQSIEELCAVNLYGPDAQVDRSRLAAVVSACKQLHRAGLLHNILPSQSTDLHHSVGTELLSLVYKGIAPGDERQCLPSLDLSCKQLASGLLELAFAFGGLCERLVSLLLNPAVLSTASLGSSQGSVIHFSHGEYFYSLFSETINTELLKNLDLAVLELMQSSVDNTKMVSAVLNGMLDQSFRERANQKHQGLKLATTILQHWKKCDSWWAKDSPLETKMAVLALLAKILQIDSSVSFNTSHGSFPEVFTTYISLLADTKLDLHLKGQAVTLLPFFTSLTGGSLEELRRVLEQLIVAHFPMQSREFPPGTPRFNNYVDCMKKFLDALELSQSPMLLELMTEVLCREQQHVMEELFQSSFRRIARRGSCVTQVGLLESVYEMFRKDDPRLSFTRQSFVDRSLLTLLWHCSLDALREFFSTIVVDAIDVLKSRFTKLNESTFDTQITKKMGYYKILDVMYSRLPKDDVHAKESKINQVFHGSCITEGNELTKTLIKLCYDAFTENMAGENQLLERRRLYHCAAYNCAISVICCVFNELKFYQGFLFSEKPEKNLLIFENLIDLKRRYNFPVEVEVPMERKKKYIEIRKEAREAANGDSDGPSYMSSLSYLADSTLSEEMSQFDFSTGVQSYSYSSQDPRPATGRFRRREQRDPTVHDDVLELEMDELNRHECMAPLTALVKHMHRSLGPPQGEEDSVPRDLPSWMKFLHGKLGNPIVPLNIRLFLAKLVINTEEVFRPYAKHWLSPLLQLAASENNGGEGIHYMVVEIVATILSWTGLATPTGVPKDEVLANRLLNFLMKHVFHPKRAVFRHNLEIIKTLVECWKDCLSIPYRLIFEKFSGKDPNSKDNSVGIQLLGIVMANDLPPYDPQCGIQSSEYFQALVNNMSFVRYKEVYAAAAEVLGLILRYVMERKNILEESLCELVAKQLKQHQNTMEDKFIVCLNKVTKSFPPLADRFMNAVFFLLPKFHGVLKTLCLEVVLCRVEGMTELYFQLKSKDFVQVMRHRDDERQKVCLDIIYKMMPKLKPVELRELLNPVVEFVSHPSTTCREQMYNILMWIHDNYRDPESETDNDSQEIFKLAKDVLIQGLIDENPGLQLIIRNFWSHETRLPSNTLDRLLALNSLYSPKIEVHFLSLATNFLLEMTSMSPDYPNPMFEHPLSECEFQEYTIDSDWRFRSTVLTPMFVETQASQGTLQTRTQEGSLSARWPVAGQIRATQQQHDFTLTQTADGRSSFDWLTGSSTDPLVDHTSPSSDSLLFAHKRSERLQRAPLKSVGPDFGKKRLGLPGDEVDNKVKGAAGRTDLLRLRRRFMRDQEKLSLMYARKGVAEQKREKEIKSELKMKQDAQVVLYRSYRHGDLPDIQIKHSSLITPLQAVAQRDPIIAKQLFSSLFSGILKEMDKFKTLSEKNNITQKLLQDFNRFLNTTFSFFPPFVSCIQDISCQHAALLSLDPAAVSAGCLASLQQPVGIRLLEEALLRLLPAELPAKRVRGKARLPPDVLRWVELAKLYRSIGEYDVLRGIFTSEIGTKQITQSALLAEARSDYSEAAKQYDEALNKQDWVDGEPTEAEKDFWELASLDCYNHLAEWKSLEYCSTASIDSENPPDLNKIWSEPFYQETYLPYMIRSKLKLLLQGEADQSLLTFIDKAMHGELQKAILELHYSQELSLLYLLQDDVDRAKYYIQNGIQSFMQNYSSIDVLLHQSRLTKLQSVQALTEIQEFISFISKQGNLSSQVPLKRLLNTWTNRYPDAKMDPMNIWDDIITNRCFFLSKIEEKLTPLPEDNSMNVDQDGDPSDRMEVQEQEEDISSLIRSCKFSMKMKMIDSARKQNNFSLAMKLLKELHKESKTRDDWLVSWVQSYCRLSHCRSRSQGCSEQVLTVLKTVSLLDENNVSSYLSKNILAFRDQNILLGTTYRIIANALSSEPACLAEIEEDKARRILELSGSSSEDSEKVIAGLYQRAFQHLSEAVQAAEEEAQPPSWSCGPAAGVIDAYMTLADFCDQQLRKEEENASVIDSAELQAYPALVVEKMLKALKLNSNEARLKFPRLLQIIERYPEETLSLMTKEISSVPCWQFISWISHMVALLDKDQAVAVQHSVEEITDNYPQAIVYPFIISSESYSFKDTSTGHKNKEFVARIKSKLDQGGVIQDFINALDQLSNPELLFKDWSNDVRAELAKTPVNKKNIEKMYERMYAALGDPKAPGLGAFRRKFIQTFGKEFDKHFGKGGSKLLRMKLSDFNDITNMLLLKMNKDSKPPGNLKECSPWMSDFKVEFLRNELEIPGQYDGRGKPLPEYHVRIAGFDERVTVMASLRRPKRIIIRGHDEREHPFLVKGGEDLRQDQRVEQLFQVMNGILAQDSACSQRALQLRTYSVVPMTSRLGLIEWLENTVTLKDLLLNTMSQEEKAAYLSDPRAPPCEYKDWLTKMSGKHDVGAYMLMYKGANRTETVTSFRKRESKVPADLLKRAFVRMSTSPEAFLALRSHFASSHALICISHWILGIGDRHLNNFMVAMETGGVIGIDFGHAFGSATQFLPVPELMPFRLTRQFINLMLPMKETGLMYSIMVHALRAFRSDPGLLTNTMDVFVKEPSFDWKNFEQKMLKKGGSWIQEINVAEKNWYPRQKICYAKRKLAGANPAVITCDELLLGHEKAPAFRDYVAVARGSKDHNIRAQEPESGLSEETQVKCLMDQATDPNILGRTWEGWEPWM
UniProt Q13426: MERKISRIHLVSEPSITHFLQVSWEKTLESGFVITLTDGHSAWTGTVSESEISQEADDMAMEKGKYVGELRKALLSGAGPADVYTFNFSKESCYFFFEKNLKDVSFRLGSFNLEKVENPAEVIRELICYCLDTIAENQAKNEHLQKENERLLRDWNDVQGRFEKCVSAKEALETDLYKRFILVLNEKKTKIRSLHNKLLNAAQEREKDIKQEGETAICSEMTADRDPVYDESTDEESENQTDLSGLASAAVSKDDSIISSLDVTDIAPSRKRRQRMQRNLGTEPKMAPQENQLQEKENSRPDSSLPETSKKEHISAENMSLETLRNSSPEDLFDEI

Assay [1] concerns the target T1, Transcriptional repressor GATA binding 1 (TRPS1) (human (endogenous in MCF7 and T47D)) (UniProt Q9UHF7).
T1 sequence: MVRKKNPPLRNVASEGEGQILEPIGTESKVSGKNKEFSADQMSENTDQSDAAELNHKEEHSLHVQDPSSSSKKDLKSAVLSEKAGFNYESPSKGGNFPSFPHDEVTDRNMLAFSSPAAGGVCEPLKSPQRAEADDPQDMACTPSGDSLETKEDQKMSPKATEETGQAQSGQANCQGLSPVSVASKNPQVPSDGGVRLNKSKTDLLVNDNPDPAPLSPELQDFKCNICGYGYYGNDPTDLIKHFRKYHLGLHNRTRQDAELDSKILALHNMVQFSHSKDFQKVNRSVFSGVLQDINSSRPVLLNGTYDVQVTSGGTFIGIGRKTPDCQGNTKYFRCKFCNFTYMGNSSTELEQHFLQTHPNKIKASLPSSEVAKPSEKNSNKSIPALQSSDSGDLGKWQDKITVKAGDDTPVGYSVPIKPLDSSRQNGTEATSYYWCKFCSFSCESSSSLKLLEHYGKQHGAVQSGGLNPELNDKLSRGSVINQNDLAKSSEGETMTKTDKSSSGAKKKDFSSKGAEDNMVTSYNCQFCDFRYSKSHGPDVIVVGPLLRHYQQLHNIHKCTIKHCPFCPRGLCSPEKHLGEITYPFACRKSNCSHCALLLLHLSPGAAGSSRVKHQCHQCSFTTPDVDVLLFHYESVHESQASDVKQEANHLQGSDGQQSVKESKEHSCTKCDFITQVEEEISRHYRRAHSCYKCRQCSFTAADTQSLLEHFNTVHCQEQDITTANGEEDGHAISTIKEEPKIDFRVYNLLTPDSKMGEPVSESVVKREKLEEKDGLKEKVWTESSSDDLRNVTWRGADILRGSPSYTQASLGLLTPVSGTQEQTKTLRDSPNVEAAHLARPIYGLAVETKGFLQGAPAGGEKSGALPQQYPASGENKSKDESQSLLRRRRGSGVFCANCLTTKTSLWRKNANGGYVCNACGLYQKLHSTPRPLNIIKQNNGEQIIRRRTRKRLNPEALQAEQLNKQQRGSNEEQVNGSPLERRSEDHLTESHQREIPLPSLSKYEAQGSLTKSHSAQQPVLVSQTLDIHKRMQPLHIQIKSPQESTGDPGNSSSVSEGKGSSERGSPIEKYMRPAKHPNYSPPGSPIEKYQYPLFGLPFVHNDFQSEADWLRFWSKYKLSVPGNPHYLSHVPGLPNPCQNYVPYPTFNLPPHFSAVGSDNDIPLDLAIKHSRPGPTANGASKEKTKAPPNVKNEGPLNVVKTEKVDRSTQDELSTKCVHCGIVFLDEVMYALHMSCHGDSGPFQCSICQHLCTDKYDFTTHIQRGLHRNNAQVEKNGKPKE
Description: co-IP; endogenous proteins in MCF7 and T47D lysates; Protein G beads conjugated with anti-TRPS1 antibody, control IgG; washes in 50 mM Tris-HCl pH 7.5, 150 mM NaCl, 1% Triton X-100, 1 mM EDTA; cells untreated or challenged with 5 μM ADR for 2 h and chased, or DMSO, or treated with AG14361 for 24 h; lysates with or without Deoxyribonuclease I.

The target of assay [2] is T1, Transcriptional repressor GATA binding 1 (TRPS1) (human (endogenous in MCF7 and T47D)). Kind of assay: co-IP; screen: proteins co-immunoprecipitated with TRPS1, list in Dataset S1, used for GO and KEGG enrichment analysis; how the proteins were identified, the cells and the bait's form are not told.

These are yes or no findings as the source states them, for the method shown. Binding seen in cells or lysates may run through a third protein. Some results given as binding are weak or reduced against the parent protein; the word gives no strength.

Consider Ku70 (from UniProt P12956 1-609), for which the binding entry in assay [1] and in assay [2] was “binds” each time.
Regarding Ku80 (from UniProt P13010 1-732), the binding entry in assay [1] and in assay [2] was “binds” each time.
On to “Poly [ADP-ribose] polymerase 1 (PARP1) (from UniProt P09874 1-1014) (enzyme)”, for which the binding result in assay [1] and in assay [2] was “binds” in each case.
Regarding “DNA-PKcs (from UniProt P78527 1-4128) (enzyme)”, the binding result in assay [1] is listed as “no binding”.
For the substance XRCC4 (from UniProt Q13426 1-336), the binding result in assay [1] is listed as “no binding”.
